The list shows a part of the results.
B1: PhoQ; a variant is named by its letters at X, in order, P23837 (parent)
chain: MKKLLRLFFPLSLRVRFLLATAAVVLVLSLAYGMVALIGYSVSFDKTTFRLLRGESNLFYTLAKWENNKLHVELPENIDKQSPTMTLIYDENGQLLWAQRDVPWLMKMIQPDWLKSNGFHEIEADVNDTSLLLSGDHSIQQQLQEVREDDDDAEMTHSVAVNVYPATSRMPKLTIVVVDTIPVELKSSYMVWSWFIYVLSANLLLVIPLLWVAAWWSLRPIEALAKEVRELEEHNRELLNPATTRELTSLVRNLNRLLKSERERYDKYRTTLTDLTHSLKTPLXXLQXXLRSLRSEKMSVSDAEPVMLEQISRISQQIGYYLHRASMRGGTLLSRELHPVAPLLDNLTSALNKVYQRKGVNISLDISPEISFVGEQNDFVEVMGNVLDNACKYCLEFVEISARQTDEHLYIVVEDDGPGIPLSKREVIFDRGQRVDTLRPGQGVGLAVAREITEQYEGKIVAGESMLGGARMEVIFGRQHSAPKDE

Variants of: B1
Experiment: enrichment ratio after two sorts for PhoP signalling (ratio (wild type AVST 3.29)); higher = more functional
Conditions: with PhoP (E. coli)

Variant	enrichment ratio
NKDV	≤ 0.25
KMWF	≤ 0.25
DEYD	≤ 0.25
GGCD	≤ 0.25
AMCY	25.2
ALGH	≤ 0.25
GGLL	12.7
LIHC	≤ 0.25
YWGL	≤ 0.25
PHPM	≤ 0.25
DCSL	≤ 0.25
FLAW	≤ 0.25
MHPY	≤ 0.25
TRSL	2.78
ICTN	≤ 0.25
LKMP	≤ 0.25
KSQD	≤ 0.25
TGYC	13.2
RNTK	≤ 0.25
NTYW	≤ 0.25
LAVQ	≤ 0.25
RQHA	≤ 0.25
KILT	≤ 0.25
VGRF	≤ 0.25
IYYN	≤ 0.25

Variant	enrichment ratio
EGNV	≤ 0.25
QVVS	≤ 0.25
LARS	≤ 0.25
GRCL	≤ 0.25
IPEY	≤ 0.25
SDCW	≤ 0.25
RYYR	≤ 0.25
ECPY	≤ 0.25
DRLK	≤ 0.25
MCFW	≤ 0.25
HNIQ	≤ 0.25
QSVS	≤ 0.25
NLKA	≤ 0.25
CYHP	≤ 0.25
RCSL	≤ 0.25
WCRG	≤ 0.25
PLDN	≤ 0.25
CCTV	≤ 0.25
DFHA	≤ 0.25
SWIH	≤ 0.25
GPGM	≤ 0.25
TVET	≤ 0.25
QDIW	≤ 0.25
VSQC	≤ 0.25
DCPN	≤ 0.25

Variant	enrichment ratio
HLKN	≤ 0.25
LVTW	≤ 0.25
GNYG	≤ 0.25
DQTI	≤ 0.25
FIII	≤ 0.25
PRHY	≤ 0.25
QTWL	21.9
GDAR	≤ 0.25
QFVY	≤ 0.25
TSGC	9.62
NGDT	≤ 0.25
SMIM	5.32
ITTG	≤ 0.25
LIEI	≤ 0.25
VFKW	≤ 0.25
HYPR	≤ 0.25
GEGD	≤ 0.25
PHDI	≤ 0.25
SLHL	0.49
YDQS	≤ 0.25
GKEQ	≤ 0.25
IMFP	≤ 0.25
ASWK	≤ 0.25
VRAN	≤ 0.25
KVPW	≤ 0.25

Variant	enrichment ratio
EYPW	≤ 0.25
PMRH	≤ 0.25
IRFW	≤ 0.25
IIMD	≤ 0.25
YTGY	≤ 0.25
RWVT	≤ 0.25
YCLM	14.9
DKMT	≤ 0.25
KVVT	≤ 0.25
FWDH	≤ 0.25
IPYS	≤ 0.25
DIIC	≤ 0.25
KMYK	≤ 0.25
GIYQ	≤ 0.25
SQQE	≤ 0.25
IYVS	≤ 0.25
AKGQ	≤ 0.25
TWTG	≤ 0.25
FNWA	≤ 0.25
PGGC	≤ 0.25
YGIK	≤ 0.25
AQEL	≤ 0.25
DFQP	≤ 0.25
GGGL	≤ 0.25
PMEF	≤ 0.25

Variant	enrichment ratio
ALIH	≤ 0.25
NRSA	≤ 0.25
KASR	≤ 0.25
LKMF	≤ 0.25
RMQS	≤ 0.25
ETFW	≤ 0.25
AACC	≤ 0.25
VEPS	≤ 0.25
HSGV	≤ 0.25
ETLI	≤ 0.25
LGTS	≤ 0.25
MCIC	≤ 0.25
NKFM	≤ 0.25
YSKI	≤ 0.25
TGPR	≤ 0.25
RCLT	≤ 0.25
LYLR	≤ 0.25
EQVC	≤ 0.25
EYSR	≤ 0.25
YHPD	≤ 0.25
NRHS	≤ 0.25
IHCS	≤ 0.25
HPAW	≤ 0.25
MNND	≤ 0.25
QFKL	≤ 0.25

Variant	enrichment ratio
GKMW	≤ 0.25
PTGN	≤ 0.25
VDVV	≤ 0.25
PTHM	≤ 0.25
WDAK	≤ 0.25
IFPA	≤ 0.25
FSSK	≤ 0.25
FRGD	≤ 0.25
ILIL	≤ 0.25
MPML	≤ 0.25
KDEP	≤ 0.25
VYEN	≤ 0.25
HTNN	≤ 0.25
NRMM	≤ 0.25
ETPL	≤ 0.25
IECT	16.6
YPPF	≤ 0.25
LANI	≤ 0.25
SAPW	≤ 0.25
LQFH	≤ 0.25
PVFK	≤ 0.25
INCC	≤ 0.25
TPYI	≤ 0.25
HYLT	≤ 0.25
VLRL	≤ 0.25

Variant	enrichment ratio
RILE	≤ 0.25
ADIH	≤ 0.25
MLWG	≤ 0.25
TKAV	8.07
LALC	0.604
PSSG	≤ 0.25
MTAY	4.94
RMWD	≤ 0.25
YMKN	≤ 0.25
AGTY	0.894
MMIY	≤ 0.25
WVPN	≤ 0.25
NTKS	≤ 0.25
KPWV	≤ 0.25
NTKY	≤ 0.25
TAHY	27.1
DYPQ	≤ 0.25
MGDV	≤ 0.25
DHNW	≤ 0.25
LVGA	≤ 0.25
MYRA	≤ 0.25
IIRV	≤ 0.25
LMYT	≤ 0.25
ENFL	≤ 0.25
LKNW	≤ 0.25

Variant	enrichment ratio
KVFM	≤ 0.25
HVPG	≤ 0.25
QPYW	≤ 0.25
KSMS	≤ 0.25
LPRH	≤ 0.25
ASDV	≤ 0.25
EHRL	≤ 0.25
QPHR	≤ 0.25
NVGH	≤ 0.25
RVEP	≤ 0.25
NYIN	≤ 0.25
KPQN	≤ 0.25
ELGS	≤ 0.25
QMVI	≤ 0.25
YDMS	≤ 0.25
LYSE	≤ 0.25
GWDF	≤ 0.25
NAYQ	≤ 0.25
KDWW	≤ 0.25
GQQM	≤ 0.25
